{"source": "PubChem BioAssay AID463173", "about": "(ICCB-Longwood Screening Facility, Harvard Medical School, 2010)", "note": "Screen size: about 52,000 compounds; about 1,700 (3.3%) were called active. Cut-off read from the data, not from the text of the source: active = survival mostly below about 52% (no sharp cut-off); inactive = mostly above about 56%. The list shows a part of the results."}
{"system": "Wild type", "experiment": "growth inhibition of S. aureus wild type versus tarO mutant, primary screen, teichoic acid synthesis inhibitors, RN4220, OD600 (AID 463173)", "conditions": "S. aureus RN4220 wild type/DeltatarO growth, OD600, 18 h, hits give low values, screened at 18.75 µg/mL (by protocol)"}
{"smiles": "CCC(C)NS(=O)(=O)c1ccc(N2CCCCS2(=O)=O)cc1", "note": "(centres undefined)", "survival": "inactive: 135%"}
{"smiles": "COc1ccc(C)cc1NC(=O)C1CCCN(S(=O)(=O)c2ccc3c(c2)CCCN3C(C)=O)C1", "note": "(centres undefined)", "survival": "inactive: 84%"}
{"smiles": "O=c1c2oc3ccccc3c2n(Cc2ccc(Cl)cc2)c(=O)n1Cc1ccc2c(c1)OCO2", "survival": "inactive: 86%"}
{"smiles": "Fc1cccc(NCc2ccccc2-c2nnc(-c3ccccc3Cl)o2)c1", "survival": "inactive: 149%"}
{"smiles": "Cc1ccc(-n2c3c(c(=O)[nH]c2=O)C(NS(=O)(=O)c2ccc(Cl)cc2)(C(F)(F)F)C(=O)N3)cc1", "note": "(centres undefined)", "survival": "inactive: 81%"}
{"smiles": "COCCNC(=O)CSc1nc2cc3c(cc2c(=O)n1CCCC(=O)NCCc1ccc(OC)c(OC)c1)OCO3", "survival": "inactive: 57%"}
{"smiles": "CCC(CC)C(=O)Nc1nnc(SCc2cc(=O)c3ccccc3[nH]2)s1", "survival": "inactive: 115%"}
{"smiles": "CCOCCCNC(=O)CN1C(=O)c2cccnc2Sc2ccccc21", "survival": "inactive: 71%"}
{"smiles": "CCCCNC(=O)CCCN1C(=O)CCn2nc(-c3cccn3C)cc21", "survival": "inactive: 65%"}
{"smiles": "Cc1ccc(Cl)cc1N1CCN(C2(c3ccccc3)C(=O)c3ccccc3C2=O)CC1", "survival": "inactive: 108%"}
{"smiles": "COc1cccc(NC(=O)Cn2c(=O)n(-c3cccc(OC)c3)c(=O)c3sc4ccccc4c32)c1", "survival": "inactive: 72%"}
{"smiles": "CCC(C)(C)NC(=O)C1CCC(CNS(=O)(=O)c2ccc3c(c2)CC(C)N3C(C)=O)CC1", "note": "(centres undefined)", "survival": "inactive: 95%"}
{"smiles": "COc1ccc2c(CNCc3ccco3)c(C(=O)O)n(Cc3ccc(F)cc3Cl)c2c1", "survival": "inactive: 92%"}
{"smiles": "NC(=S)NN=C1c2cc(S(=O)(=O)N3CCOCC3)ccc2-c2ccc(S(=O)(=O)N3CCOCC3)cc21", "survival": "inactive: 114%"}
{"smiles": "Fc1ccccc1N1CCN(c2nnc(C(F)(F)F)c3nnn(Cc4ccccc4)c23)CC1", "survival": "inactive: 89%"}
{"smiles": "O=C(Cn1c(SCCOc2ccccc2Cl)nc2ccccc21)N1CCOCC1", "survival": "inactive: 68%"}
{"smiles": "Cc1nnc(N(C)C(=O)CNC(=O)c2ccccc2)s1", "survival": "inactive: 98%"}
{"smiles": "COc1ccc(CCNc2ncnc3c2nnn3C)cc1OC", "survival": "inactive: 73%"}
{"smiles": "CCc1ccc(NC(=O)CSc2nc(-c3ccccc3)no2)cc1", "survival": "inactive: 68%"}
{"smiles": "CN1CCN(C(=O)Nc2ccc(Cc3ccc(NC(=O)N4CCN(C)CC4)cc3)cc2)CC1", "survival": "inactive: 100%"}
{"smiles": "CN(C)S(=O)(=O)N(CC(=O)Nc1ccc(Br)cc1F)c1ccccc1", "survival": "inactive: 85%"}
{"smiles": "Oc1ccc(Nc2nc(-c3ccc(O)cc3)cs2)cc1", "survival": "inactive: 34%"}
{"smiles": "COc1cccc(C(c2sc3nc(-c4ccco4)nn3c2O)N2CCCC2)c1", "note": "(centres undefined)", "survival": "inactive: 78%"}
{"smiles": "COc1ccccc1Cn1ccn(CC(=O)Nc2c(C)cc(C)cc2C)c(=O)c1=O", "survival": "inactive: 81%"}
{"smiles": "CC(C)C(=O)NC1CC(=O)N(c2ccc3c(c2)OCCO3)C1", "note": "(centres undefined)", "survival": "inactive: 136%"}
{"smiles": "Cc1nnc(N2CCN(c3ccc(Cl)cc3)CC2)c2c1nnn2Cc1ccc(F)cc1", "survival": "inactive: 89%"}
{"smiles": "CCc1ccc(NC(=O)C(=O)NCCc2sc(-c3ccc(OC)c(OC)c3)nc2C)cc1", "survival": "inactive: 77%"}
{"smiles": "CC1CCCCN1C(=O)c1ccc2c(c1)N(Cc1ccc(Cl)cc1)C(=O)c1ccccc1S2=O", "note": "(centres undefined)", "survival": "inactive: 110%"}
{"smiles": "COc1cc(OC)cc(C(=O)NCCc2csc(-c3cccc(C)c3)n2)c1", "survival": "inactive: 78%"}
{"smiles": "CN(C1CCCCC1)S(=O)(=O)c1ccc(F)c(C(=O)Nc2ccc(C(F)(F)F)cc2)c1", "survival": "inactive: 88%"}
{"smiles": "COc1ccc(NC(=O)c2c(NCc3cccs3)sc3c2CCCCC3)cc1", "survival": "inactive: 71%"}
{"smiles": "Cc1c(C(=O)Nc2cccc(F)c2)sc2nc(-c3cc4ccccc4oc3=O)[nH]c(=O)c12", "survival": "inactive: 72%"}
{"smiles": "Cc1ccc(-n2nc(C)c3c(C)cc(=O)n(CC(=O)Nc4ccc(C(C)C)cc4)c32)cc1", "survival": "inactive: 153%"}
{"smiles": "CCOC(=O)c1[nH]c2ccccc2c1NC(=O)c1c(F)cccc1F", "survival": "inactive: 173%"}
{"smiles": "O=C(NCc1ccccc1Cl)c1ccc2c(c1)N(Cc1ccccc1)C(=O)c1ccccc1S2", "survival": "inactive: 148%"}
{"smiles": "CCOC(=O)c1sc2ncn(CC(=O)Nc3cccc(C)c3)c(=O)c2c1C", "survival": "inactive: 88%"}
{"smiles": "C1CCC(Nc2nnnn2C2CCCCC2)CC1", "survival": "inactive: 102%"}
{"smiles": "CCc1cccc(NC(=O)c2cc(-c3ccccc3)n[nH]2)c1", "survival": "inactive: 138%"}
{"smiles": "O=C(Nc1cccc(Cl)c1)C1CCN(c2nc3ccccc3nc2C(F)(F)F)CC1", "survival": "inactive: 79%"}
{"smiles": "COc1cc(NC(C)=O)ccc1-c1cc2ccccc2oc1=O", "survival": "inactive: 105%"}
{"smiles": "COc1cccc(OCCCn2c(-c3ccc(Cl)cc3)nc3ccccc3c2=O)c1", "survival": "inactive: 68%"}
{"smiles": "COc1ccc(Nc2ncc(C(=O)N3CCN(c4ccc(OC)cc4)CC3)c3ccccc23)cc1", "survival": "inactive: 83%"}
{"smiles": "O=C(c1ccc2c(c1)CCN2S(=O)(=O)c1ccc(Cl)cc1)N1CCN(c2ccccc2F)CC1", "survival": "inactive: 83%"}
{"smiles": "Cc1ccccc1Cn1c(=O)n(Cc2ccco2)c(=O)c2oc3ccccc3c21", "survival": "inactive: 92%"}
{"smiles": "CCCCNC(=O)c1cnc2sc(N3CCCCC3)nn2c1=O", "survival": "inactive: 69%"}
{"smiles": "Cc1cc(OC(C)C(=O)N2CCN(CCc3ccccn3)CC2)ccc1Cl", "note": "(centres undefined)", "survival": "inactive: 78%"}
{"smiles": "Cc1nc2c(c(SCC(=O)Nc3ccccc3C(F)(F)F)n1)CCC2", "survival": "inactive: 84%"}
{"smiles": "O=C(O)C1C2C=CC(O2)C1C(=O)N1CCOCC1", "note": "(centres undefined)", "survival": "inactive: 96%"}
{"smiles": "CN(C)c1ccc(CN2CCc3nc(N4CCN(c5ccccn5)CC4)ncc3C2)cc1", "survival": "inactive: 51%"}
{"smiles": "CCC(CC)C(=O)Nc1ccc(OCc2cc(=O)n3ccc(C)cc3n2)cc1", "survival": "inactive: 131%"}
{"smiles": "CCOC(=O)C1CCN(C(=O)c2nn(-c3ccc(C)cc3)c(=O)c3c2c2ccccc2n3C)CC1", "survival": "inactive: 73%"}
{"smiles": "CCOc1ccccc1N1CC(c2nc3ccccc3n2CCCOc2ccccc2)CC1=O", "note": "(centres undefined)", "survival": "inactive: 58%"}
{"smiles": "CC(C)N(Cc1ccccc1)C(=O)c1cc2ccc3cccnc3c2[nH]1", "survival": "inactive: 88%"}
{"smiles": "COc1ccc(C(C(=O)Nc2ccc(C(C)C)cc2)N(C)C(=O)Cc2cccs2)cc1", "note": "(centres undefined)", "survival": "inactive: 135%"}
{"smiles": "Cc1ccc(OC(=O)CCC(=O)N2CCN(C(=O)CCC(=O)Oc3ccc(C)cc3)CC2)cc1", "survival": "inactive: 111%"}
{"smiles": "CC(C)CC(=O)N1CCN(S(=O)(=O)c2ccccc2)CC1", "survival": "inactive: 105%"}
{"smiles": "Cc1oc(CC(C)C)cc1C(N)=O", "survival": "inactive: 109%"}
{"smiles": "O=C(Nc1ccc(OC(F)(F)F)cc1)C1CCCN(S(=O)(=O)c2ccc(Br)s2)C1", "note": "(centres undefined)", "survival": "inactive: 69%"}
{"smiles": "O=C(Cc1csc2ccccc12)NCc1ccc(F)cc1", "survival": "inactive: 79%"}
{"smiles": "Cc1ccccc1Nc1nnc(-c2ccc(C)c(S(=O)(=O)N3CCN(C)CC3)c2)c2ccccc12", "survival": "inactive: 85%"}
{"smiles": "COc1cccc(NC(c2nnc(-c3ccccc3)o2)c2ccc(F)cc2Cl)c1", "note": "(centres undefined)", "survival": "inactive: 56%"}
{"smiles": "COc1ccc(C(=O)NCC(c2cccnc2)N2CCN(c3ccccc3OC)CC2)cc1", "note": "(centres undefined)", "survival": "inactive: 82%"}
{"smiles": "CC(C)(C)c1ccc(C(=O)Nc2nc3nc(-c4ccccc4)cc(=O)n3[nH]2)cc1", "survival": "inactive: 106%"}
{"smiles": "Cc1ccc(NC(=O)Cn2c(SCc3cccc(F)c3)nc3ccncc32)c(C)c1", "survival": "inactive: 69%"}
{"smiles": "C#CC(C)(CC)NC(=O)Cn1nnc(-c2ccc(OCc3ccccc3Cl)cc2)n1", "note": "(centres undefined)", "survival": "inactive: 74%"}
{"smiles": "COc1ccc(Br)cc1CNC(=O)CN1C(=O)CCCc2ccccc21", "survival": "inactive: 89%"}
{"smiles": "Cc1c(CCC(=O)NCc2ccc(F)cc2)c(=O)oc2cc(O)ccc12", "survival": "inactive: 116%"}
{"smiles": "COCCCNC(=O)C1CCCN(c2ncnc3onc(C)c23)C1", "note": "(centres undefined)", "survival": "inactive: 77%"}
{"smiles": "COc1ccc(CCNC(=O)c2ccc3c(Cl)c4c(nc3c2)CCCC4)cc1OC", "survival": "inactive: 76%"}
{"smiles": "CN1CCN(C(=O)C23CC4CC(CC(C4)C2)C3)CC1", "survival": "inactive: 110%"}
{"smiles": "Cc1ccccc1OCC(=O)Nc1ccc(C(=O)OCc2cc(=O)n3c(C)csc3n2)cc1", "survival": "inactive: 134%"}
{"smiles": "Cc1ccc2oc(C(=O)Nc3nc(-c4ccc(F)cc4)ns3)c(C)c2c1", "survival": "inactive: 87%"}
{"smiles": "CCc1ccc(C(=O)c2cn(CC(=O)Nc3ccc4c(c3)OCCO4)c3ccc(CC)cc3c2=O)cc1", "survival": "inactive: 88%"}
{"smiles": "COc1ccc(C2c3c(oc4cc(C)cc(C)c4c3=O)C(=O)N2Cc2ccco2)cc1OC", "note": "(centres undefined)", "survival": "inactive: 91%"}
{"smiles": "COc1cccc(NC(=O)CSC2=Nc3ccccc3C3=NC(CC(=O)NCc4cccs4)C(=O)N23)c1", "note": "(centres undefined)", "survival": "inactive: 77%"}
{"smiles": "COc1ccc(Cn2c(CNC(=O)Cc3cccc([N+](=O)[O-])c3)nc3cccnc32)cc1", "survival": "active: -6%"}
{"smiles": "CC(=O)N1CCN(c2nc3c(F)cc(F)cc3s2)CC1", "survival": "inactive: 80%"}
{"smiles": "COc1ccc(CNC(=O)CSCc2cnn(-c3ccccc3)c2-n2cccc2)cc1OC", "survival": "inactive: 125%"}
{"smiles": "Cc1cccc(N2CCN(C(=O)c3cc4c(=O)[nH]c5ccc(C)cc5c4s3)CC2C)c1", "note": "(centres undefined)", "survival": "inactive: 124%"}
{"smiles": "Cc1cc(C)cc(NC(=O)c2sc3nc[nH]c(=O)c3c2C)c1", "survival": "inactive: 77%"}
{"smiles": "CCOC(=O)Cn1c(=O)n(CC2CCCO2)c2nc(-c3ccccc3Cl)nc(C(N)=O)c21", "note": "(centres undefined)", "survival": "inactive: 55%"}
{"smiles": "COc1ccccc1C(=O)Nc1c(C(=O)c2ccccc2)oc2ccccc12", "survival": "active: -3%"}
{"smiles": "CCOc1ccc(N(CC)C(=O)c2noc3c2COc2ccc(C)cc2-3)cc1", "survival": "inactive: 94%"}
{"smiles": "O=c1c(N2CCc3ccccc3C2)csc2ccc(F)cc12", "survival": "inactive: 84%"}
{"smiles": "CC1=C(C(=O)Nc2ccccc2C)C(c2cccs2)n2nc(SCc3cc(C)ccc3C)nc2N1", "note": "(centres undefined)", "survival": "inactive: 143%"}
{"smiles": "CCOC(=O)c1ccc(CN(Cc2ccc(OC)cc2)S(=O)(=O)c2cccc(C(F)(F)F)c2)cc1", "survival": "inactive: 73%"}
{"smiles": "O=C(CCCn1c(=O)c2cccn2c2cccnc21)Nc1ccccc1C(F)(F)F", "survival": "inactive: 90%"}
{"smiles": "CCOc1ccccc1NC(=O)C1=C(C)Nc2ncnn2C1c1sccc1C", "note": "(centres undefined)", "survival": "inactive: 90%"}
{"smiles": "Cc1ccc(CNC(=O)c2c(-c3ccc(Br)cc3)noc2C)o1", "survival": "inactive: 82%"}
